Test results published in the antibiotic and cytotoxicity screens of Wong et al. (2023).
This is one part of the list.

Tests used:
[1] = test system: HSkMC (human skeletal muscle cells); assay: cytotoxicity call (relative viability < 0.9); settings: 10 µM
[2] = test system: HepG2; assay: cytotoxicity call (relative viability < 0.9); settings: 10 µM
[3] = test system: S. aureus RN4220; assay: growth inhibition call (relative growth <= 0.2); settings: 50 µM

SMILES: O=C1Sc2cccc3cccc1c23
- cytotoxicity call [1]: inactive
- cytotoxicity call [2]: inactive
- growth inhibition call [3]: inactive

SMILES: COCC#Cc1cnc2c(c1)C(=O)N([C@@H](C)CO)C[C@@H](C)[C@@H](CN(C)C(=O)Nc1cc(F)ccc1F)O2
- cytotoxicity call [1]: inactive
- cytotoxicity call [2]: inactive
- growth inhibition call [3]: inactive

SMILES: COc1ccc(S(=O)(=O)Nc2ccc3c(c2)CC(=O)N([C@H](C)CO)C[C@H](C)[C@H](CN(C)S(=O)(=O)c2ccc(F)cc2)O3)cc1
- cytotoxicity call [1]: inactive
- cytotoxicity call [2]: inactive
- growth inhibition call [3]: inactive

SMILES: Cc1cc(=O)[n+]2cccc(O)c2[nH]1
- cytotoxicity call [1]: inactive
- cytotoxicity call [2]: inactive
- growth inhibition call [3]: active

SMILES: C[C@@H]1CN([C@@H](C)CO)C(=O)c2cc(NS(=O)(=O)c3cn(C)cn3)ccc2O[C@@H]1CN(C)S(=O)(=O)c1ccc(F)cc1
- cytotoxicity call [1]: inactive
- cytotoxicity call [2]: inactive
- growth inhibition call [3]: inactive

SMILES: C[C@H]1CN([C@@H](C)CO)C(=O)Cc2cc(NC(=O)CCC(F)(F)F)ccc2O[C@@H]1CN(C)S(=O)(=O)c1ccccc1
- cytotoxicity call [1]: inactive
- cytotoxicity call [2]: inactive
- growth inhibition call [3]: inactive

SMILES: CN(C)C(=O)C[C@@H]1CC[C@@H]2[C@H](COc3ccc(NS(=O)(=O)c4cccc(F)c4)cc3C(=O)N2C)O1
- cytotoxicity call [1]: inactive
- cytotoxicity call [2]: inactive
- growth inhibition call [3]: inactive

SMILES: NC1CCN(C(=O)N2CCCC2)CC1
- cytotoxicity call [1]: inactive
- cytotoxicity call [2]: inactive
- growth inhibition call [3]: inactive

SMILES: C[C@@H]1CCCCO[C@H](CN(C)C(=O)Nc2ccc(C(F)(F)F)cc2)[C@H](C)CN([C@H](C)CO)C(=O)c2cc(NS(C)(=O)=O)ccc2O1
- cytotoxicity call [1]: inactive
- cytotoxicity call [2]: inactive
- growth inhibition call [3]: inactive

SMILES: Cc1cccnc1[C@@H](NC(=O)C1CCN(CCOc2ccc(Cl)cc2Cl)CC1)c1ccc(Cl)cc1
- cytotoxicity call [1]: inactive
- cytotoxicity call [2]: inactive
- growth inhibition call [3]: active
